Test results from the supplement of paper PMC4166925.
± gives the standard deviation of the averaged measurements. The full ranking holds about 33,000 sequences; the median of “E-score (dimensionless, -0.5 to 0.5)” is about -0.046, and the highest 2% start at about 0.36. Some of the results follow.

What follows are sequences tested on T1, SpTbr T-box DNA-binding domain (GST fusion) (assay: PBM E-score of 8-mer (E-score (dimensionless, -0.5 to 0.5)); Tbr is Tbrain of the sea star Patiria miniata (Pm) or the sea urchin Strongylocentrotus purpuratus (Sp); higher = stronger binding preference; most listed sequences are background and not binding sites). Conditions: the construct has about 5 more residues each side.
T1 sequence: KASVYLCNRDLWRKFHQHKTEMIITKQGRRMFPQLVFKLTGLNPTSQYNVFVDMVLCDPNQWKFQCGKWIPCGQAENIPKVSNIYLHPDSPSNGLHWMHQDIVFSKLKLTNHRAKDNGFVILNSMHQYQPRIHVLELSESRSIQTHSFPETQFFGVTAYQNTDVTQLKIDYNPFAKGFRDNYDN
In short: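 Each ungapped 8-mer received an enrichment E-score from the Universal PBM Analysis Suite, averaged over duplicate arrays. The proteins were Tbr T-box DNA-binding domains, covering the whole T-box plus about five flanking residues, fused to GST and expressed in BL21 E. coli at 20 °C before glutathione affinity purification. Universal Agilent oligonucleotide arrays were made double-stranded by primer extension and incubated with 200 nM protein in PBS (pH 7.5). The arrays were then scanned and quantified, and every 8-mer was scored from probe intensities.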

| Sequence | PBM E-score of 8-mer |
| --- | --- |
| ATAGAATA | -0.133 ± 0.17 |
| AAGGAGGC | -0.201 ± 0.012 |
| GTCTGCTA | -0.00306 ± 0.017 |
| CCCCCTCG | -0.296 ± 0.043 |
| CATGACGC | 0.0651 ± 0.032 |
| ACTTCTGC | 0.0148 ± 0.00033 |
| ATTATGGG | -0.193 ± 0.019 |
| AACATTCG | -0.0917 ± 0.15 |
| AATTACCG | 0.0981 ± 0.071 |
| GTTCAGAA | -0.168 ± 0.091 |
| AACAAGAA | -0.111 ± 0.07 |
| AGTGGATG | -0.186 ± 0.029 |
| ACAGACCC | 0.0259 ± 0.044 |
| TACCTGAA | -0.191 ± 0.038 |
| AAAGCCCG | -0.07 ± 0.094 |
| AACTATCA | 0.079 ± 0.08 |
| CTGCGCGC | 0.0702 ± 0.03 |
| GTATTACA | -0.0124 ± 0.048 |
| CGGTGCCA | 0.119 ± 0.02 |
| AAAGGTGG | 0.0801 ± 0.026 |
| ACGGCCTA | -0.213 ± 0.011 |
| AGATGGCA | 0.123 ± 0.024 |
| ACCTGAGC | -0.0565 ± 0.027 |
| ACGATTAA | -0.0334 ± 0.035 |
| ACTCAGAT | -0.077 ± 0.02 |

| Sequence | PBM E-score of 8-mer |
| --- | --- |
| TCCGCGCA | 0.073 ± 0.057 |
| AGCGGTCA | -0.129 ± 0.009 |
| TCTATTCA | 0.0968 ± 0.0075 |
| GGCTGACA | 0.212 ± 0.011 |
| CATTCGGC | -0.0219 ± 0.054 |
| ACGAGAGG | 0.00413 ± 0.062 |
| TACTTCTA | -0.155 ± 0.094 |
| AATACAGA | 0.0798 ± 0.046 |
| CGTACATA | -0.0111 ± 0.06 |
| ACCCGACT | 0.0923 ± 0.057 |
| GCGAATCC | 0.196 ± 0.021 |
| AAGCCGAG | -0.00787 ± 0.085 |
| GTTTTGTA | -0.236 ± 0.0086 |
| GACGCGAC | 0.195 ± 0.045 |
| CTCCCTTC | -0.214 ± 0.037 |
| CTCTTGAC | 0.231 ± 0.013 |
| AACGGGTC | 0.0199 ± 0.014 |
| AGCAAGAT | -0.0318 ± 0.027 |
| AAGAGGCC | -0.262 ± 0.044 |
| AGCGCCCT | 0.0617 ± 0.059 |
| GTTCGTGA | 0.145 ± 0.024 |
| CAAAGTGG | 0.0165 ± 0.058 |
| AGTACGTA | -0.0947 ± 0.098 |
| GGTAGACC | -0.219 ± 0.0032 |
| GTGACCGA | 0.26 ± 0.033 |

| Sequence | PBM E-score of 8-mer |
| --- | --- |
| GACCGACC | -0.088 ± 0.079 |
| ACGAAGCG | 0.0517 ± 0.0086 |
| CAGGTCCA | -0.16 ± 0.04 |
| CTTGCGCC | 0.0724 ± 0.083 |
| CACCACTG | 0.209 ± 0.0027 |
| ATCGACGA | 0.0639 ± 0.044 |
| CCGACTAC | -0.168 ± 0.023 |
| CTAGTGAA | 0.0786 ± 0.021 |
| CCAGGGAC | -0.058 ± 0.12 |
| ATGTCTTC | 0.0345 ± 0.019 |
| ACCCAAAC | -0.0851 ± 0.12 |
| ATCCCCAC | 0.242 ± 0.0036 |
| ATTCTTTG | -0.143 ± 0.047 |
| ATTAAGGA | -0.171 ± 0.037 |
| AGCTGCGA | 0.307 ± 0.025 |
| GCCATTCA | 0.125 ± 0.0034 |
| GCTGATGA | 0.0865 ± 0.027 |
| GACCGGAC | 0.0405 ± 0.05 |
| CTCTAATC | -0.274 ± 0.018 |
| CACGAGTC | 0.0832 ± 0.035 |
| ACCTTCGC | 0.234 ± 0.025 |
| CAGCGGAG | -0.0528 ± 0.0068 |
| CAACAGCA | 0.168 ± 0.074 |
| CAAACGAG | -0.0117 ± 0.021 |
| ATATTGAA | -0.226 ± 0.0043 |

| Sequence | PBM E-score of 8-mer |
| --- | --- |
| AATCATAG | -0.191 ± 0.1 |
| TAACTCTA | -0.134 ± 0.071 |
| GCGCTAGA | 0.132 ± 0.077 |
| CAGAACAC | -0.0045 ± 0.11 |
| TGGCTTAA | -0.345 ± 0.0089 |
| AAGGTTCA | 0.127 ± 0.071 |
| TCGCTAGA | 0.126 ± 0.0074 |
| AAGAGTAT | -0.163 ± 0.024 |
| AGCACAGC | -0.145 ± 0.0064 |
| AGGCCGAC | -0.147 ± 0.035 |
| TTGGCCAA | -0.138 ± 0.061 |
| CAAATCCC | -0.0307 ± 0.076 |
| CTGTCCGA | -0.268 ± 0.036 |
| CACAAGAC | 0.0103 ± 0.0076 |
| AACAGGCT | -0.182 ± 0.046 |
| CATATCCA | -0.0171 ± 0.0059 |
| ATGGATCA | -0.196 ± 0.019 |
| AAGCCTGG | -0.118 ± 0.066 |
| CCTGTGGC | -0.0683 ± 0.12 |
| AGTTTTAA | -0.0527 ± 0.037 |
| AGGCTACG | -0.2015 ± 0.00054 |
| ACCGAACG | 0.0604 ± 0.033 |
| GCGCGAAA | 0.4374 ± 0.0039 |
| GTAAAAAC | -0.0472 ± 0.11 |
| GCTCCCTA | -0.25 ± 0.014 |

| Sequence | PBM E-score of 8-mer |
| --- | --- |
| CCTAAACG | -0.00814 ± 0.011 |
| GCTCGGAA | -0.2 ± 0.067 |
| AGCTGTGG | 0.129 ± 0.058 |
| GACTTCGC | 0.079 ± 0.035 |
| CTGTTTGA | -0.0938 ± 0.067 |
| CGCTGTTC | -0.0423 ± 0.042 |
| AATGTAGG | -0.25 ± 0.0091 |
| CCCTAGAC | -0.248 ± 0.023 |
| AGTCCCTG | -0.146 ± 0.046 |
| CTAATCCA | -0.0207 ± 0.017 |
| GAACTATC | -0.0302 ± 0.011 |
| CAGAACCG | -0.0963 ± 0.026 |
| TAGCCCAA | -0.193 ± 0.06 |
| CAACAAAC | 0.041 ± 0.046 |
| GTGCACAC | 0.276 ± 0.044 |
| ACACTCTG | 0.272 ± 0.019 |
| CCGCCACC | 0.288 ± 0.056 |
| ACTCTGCG | 0.104 ± 0.012 |
| ATAGCGCG | 0.207 ± 0.017 |
| GCTTCTCC | -0.194 ± 0.039 |
| CTGGTACC | -0.0548 ± 0.03 |
| TTCGCCAA | 0.124 ± 0.054 |
| ACAGTGAC | 0.163 ± 0.018 |
| CATCGGCG | 0.00151 ± 0.036 |
| CGTCAATA | 0.11 ± 0.017 |

| Sequence | PBM E-score of 8-mer |
| --- | --- |
| ATGCGGAC | -0.206 ± 0.083 |
| ATTTGGCG | 0.118 ± 0.03 |
| AGACTCGA | -0.158 ± 0.006 |
| GGTACCAC | 0.0611 ± 0.029 |
| GCATAAGA | -0.189 ± 0.0068 |
| CTCTGGAC | -0.124 ± 0.011 |
| CTCGGCTA | 0.0218 ± 0.005 |
| ATAGTACC | -0.0765 ± 0.017 |
| ATTGCCAG | 0.0978 ± 0.026 |
| AATACCAC | 0.165 ± 0.025 |
| ACTGTCCT | -0.12 ± 0.023 |
| AATTTCGG | -0.0357 ± 0.1 |
| AAATTTTG | -0.251 ± 0.094 |
| AGCACTGC | 0.087 ± 0.033 |
| AAGTCAGC | -0.196 ± 0.032 |
| CAGCGCAG | -0.14 ± 0.069 |
| CACGCTGA | 0.0482 ± 0.031 |
| CAAGACCC | -0.0846 ± 0.045 |
| AAGACTCG | 0.0417 ± 0.017 |
| CCGCGGCG | 0.0503 ± 0.078 |
| CCAGTGAA | -0.225 ± 0.027 |
| GACGCCTA | 0.243 ± 0.068 |
| TCCCCAAA | -0.148 ± 0.057 |
| CGATTGTC | 0.0208 ± 0.016 |
| CAAAAGCC | -0.108 ± 0.0015 |

| Sequence | PBM E-score of 8-mer |
| --- | --- |
| CTGATCGA | -0.0722 ± 0.0016 |
| AATACAGC | -0.119 ± 0.014 |
| ACTTCATC | 0.0184 ± 0.035 |
| GAAGGTAC | -0.239 ± 0.019 |
| AGGTCGTG | 0.0304 ± 0.017 |
| AGGCCACA | 0.0262 ± 0.12 |
| AGGTAATA | -0.218 ± 0.004 |
| GTGGCCCA | -0.164 ± 0.0018 |
| ATCCCTCG | -0.0209 ± 0.066 |
| ATTCTTCG | -0.0391 ± 0.032 |
| GAGGCCAC | -0.00093 ± 0.036 |
| CGTGATAA | 0.27 ± 0.036 |
| AGTTCACC | -0.00201 ± 0.066 |
| GTTTGGTA | 0.0703 ± 0.013 |
| CCTCACAG | 0.149 ± 0.032 |
| AAAGCCTT | -0.0864 ± 0.027 |
| CTGCATAA | -0.0815 ± 0.063 |
| CAATGATA | -0.0371 ± 0.0073 |
| ATTCGATG | -0.303 ± 0.013 |
| ATCGCTCA | -0.0113 ± 0.04 |
| CATAGGTA | -0.0236 ± 0.14 |
| ATTTGAGC | -0.126 ± 0.0046 |
